No constants are given. Whether binding was seen depends on the method and setting. For part of these data: Binding seen in cells or lysates may run through a third protein. Some entries that bind do so weakly or less than the wild type.
T1: AtRFC2 (Arabidopsis thaliana) (UniProt Q9CAM7)
T1 sequence: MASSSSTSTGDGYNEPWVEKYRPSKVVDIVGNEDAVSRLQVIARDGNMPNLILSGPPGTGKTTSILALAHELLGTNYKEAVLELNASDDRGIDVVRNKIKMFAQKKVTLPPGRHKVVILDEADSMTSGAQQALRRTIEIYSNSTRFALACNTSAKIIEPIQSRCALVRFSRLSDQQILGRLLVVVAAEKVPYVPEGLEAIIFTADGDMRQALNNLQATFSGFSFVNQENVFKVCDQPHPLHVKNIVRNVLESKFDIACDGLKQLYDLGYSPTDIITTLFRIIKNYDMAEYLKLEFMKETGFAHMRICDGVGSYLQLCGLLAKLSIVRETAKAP

The chains behind the UniProt entries cited, without tags or fusion partners.
UniProt Q93ZX1: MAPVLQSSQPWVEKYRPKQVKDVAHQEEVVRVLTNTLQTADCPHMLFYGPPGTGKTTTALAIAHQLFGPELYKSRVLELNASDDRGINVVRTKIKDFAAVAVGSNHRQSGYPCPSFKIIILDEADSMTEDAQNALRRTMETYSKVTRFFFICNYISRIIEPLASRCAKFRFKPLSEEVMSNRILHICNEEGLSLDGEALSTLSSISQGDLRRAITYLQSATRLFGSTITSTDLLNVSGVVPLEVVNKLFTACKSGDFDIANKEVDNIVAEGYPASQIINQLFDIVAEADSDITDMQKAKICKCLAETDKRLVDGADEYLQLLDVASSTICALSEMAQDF

T2: AtRFC5 (Arabidopsis thaliana) (UniProt Q8VXX4)
T2 sequence: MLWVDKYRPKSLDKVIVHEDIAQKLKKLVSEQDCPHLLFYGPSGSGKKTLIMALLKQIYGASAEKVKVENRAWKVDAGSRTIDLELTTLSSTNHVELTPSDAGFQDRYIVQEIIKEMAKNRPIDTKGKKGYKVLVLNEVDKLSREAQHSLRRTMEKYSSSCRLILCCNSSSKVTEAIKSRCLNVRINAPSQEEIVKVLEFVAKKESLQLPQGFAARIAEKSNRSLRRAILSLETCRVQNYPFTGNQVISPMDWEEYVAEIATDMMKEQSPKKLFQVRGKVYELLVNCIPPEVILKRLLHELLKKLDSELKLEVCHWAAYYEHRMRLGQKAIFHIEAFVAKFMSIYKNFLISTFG


How the values were obtained:
[1] = molecular target: T1, AtRFC2 (Arabidopsis thaliana); assay: split reporter; BiFC in tobacco leaf epidermal cells with truncated AtRFC proteins, pairs that include AtRFC1 or a truncated AtRFC1; whether the other small subunits were co-expressed is not said
[2] = molecular target: T2, AtRFC5 (Arabidopsis thaliana); assay: as above
[3] = molecular target: AtRFC4 (Arabidopsis thaliana) (UniProt Q93ZX1); assay: as above
[4] = molecular target: AtRFC4 (Arabidopsis thaliana) (UniProt Q93ZX1); assay: split reporter; BiFC; YFP^N (aa 1-155) and YFP^C (aa 156-239) fusions (pCAMBIA-SPYNE, pCAMBIA-SPYCE) co-expressed in tobacco (Nicotiana benthamiana) leaf epidermal cells through Agrobacterium GV3101; confocal microscopy of YFP; only the two named fusions
[5] = molecular target: T1, AtRFC2 (Arabidopsis thaliana); assay: two-hybrid; yeast two-hybrid; full-length ORFs in pGADT7 (AD) and pGBKT7 (BD); co-transformed strains spotted on SD-L-T and SD-L-T-H-A plates; empty AD or BD plasmids as negative controls
[6] = molecular target: AtRFC4 (Arabidopsis thaliana) (UniProt Q93ZX1); assay: as above

| binding [1] | binding [2] | binding [3] | binding [4] | binding [5] | binding [6] | Binder |
| --- | --- | --- | --- | --- | --- | --- |
| no binding | no binding | no binding | – | – | – | AtRFC1 Δ897-956 (domain or fragment, UniProt Q9C587 1-896) MSDIRKWFMKAHEKGNGSAPKSTSSKAGPVKNAAETAPIKSEQASEDLETADRRKTSKYFGKDKTKVKDEKEVEAIPAKRKLKTESDDLVKPRPRKVTKVVDDDDDDFDVPISRKTRDTTPSKKLKSGSGRGIASKTVDNDDDDDGEDKETPLKSAGRGRGGRAAPGASTGGRGRGGGRGGFMNFGERKDPPHKGEKEVPEGTPDCLAGLTFVISGTLDSLEREEAEDLIKRHGGRITGSVSKKTTYLLCDEDIGGRKSEKAKELGTKFLTEDGLFDIIRSSKPVKKSLPERSNKGTEKICAPPKTSPQKEETRGKPLAKSSPKKVPPAKGKNKIIETSLPWTEKYRPKVPNEIVGNQSLVTQLHNWLSHWHDQFGGTGSKGKGKKLNDAGSKKAVLLSGTPGIGKTTSAKLVSQMLGFQAVEVNASDSRGKANSNIAKGIGGSNANSVKELVNNEAMAANFDRSKHPKTVLIMDEVDGMSAGDRGGVADLIASIKISKIPIICICNDRYSQKLKSLVNYCLPLNYRKPTKQQMAKRLMHIAKAEGLEINEIALEELAERVNGDIRLAVNQLQYMSLSMSVIKYDDIRQRLLSSAKDEDISPFTAVDKLFGYNGGKLRMDERIDLSMSDPDLVPLLIQENYLNYRPSGKDEAKRMDLLARAAESIADGDIINVQIRRYRQWQLSQSCCVASSILPASLLHGSREVLEQGERNFNRFGGWLGKNSTAGKNRRLMEDLHVHVLASRESSAGRETLRVDYLPLLLSRLTSPLQTLPKDEAVSEVVDFMNSYSISQEDFDTILELGKFKGRENPMEGVPPPVKAALTKKYNEMNKTRMVRVADMVQLPGVKKAPKKRIAAMLEPTVDSLRDEDGEPLADNEEGNGSDAEEDSEEATDGEK |
| – | – | – | binds | no binding | binds | AtRFC5 (protein, UniProt Q8VXX4 1-354) MLWVDKYRPKSLDKVIVHEDIAQKLKKLVSEQDCPHLLFYGPSGSGKKTLIMALLKQIYGASAEKVKVENRAWKVDAGSRTIDLELTTLSSTNHVELTPSDAGFQDRYIVQEIIKEMAKNRPIDTKGKKGYKVLVLNEVDKLSREAQHSLRRTMEKYSSSCRLILCCNSSSKVTEAIKSRCLNVRINAPSQEEIVKVLEFVAKKESLQLPQGFAARIAEKSNRSLRRAILSLETCRVQNYPFTGNQVISPMDWEEYVAEIATDMMKEQSPKKLFQVRGKVYELLVNCIPPEVILKRLLHELLKKLDSELKLEVCHWAAYYEHRMRLGQKAIFHIEAFVAKFMSIYKNFLISTFG |
